Measured values: patent US8828401B2, “Cytotoxic peptides and antibody drug conjugates thereof” (Pfizer Inc., priority 2011, dated 2014)

Experiments:
[1] = test system: HCC2429 lung xenografts; experiment: HCC2429 lung xenografts with anti-Notch ADCs; format: in vivo, nude (Nu/Nu) female mice
Procedure: (§1) Humanized anti-Notch antibodies, hu28 and hu75, and rat-human chimeric anti-Notch antibodies, ch28 and ch75, were conjugated to various linker-payload combinations and tested in 37622A1 non-small cell lung cancer (NSCLC), HCC2429 lung cancer, MDA-MB-468 breast cancer and N87 gastric cancer xenograft models. For each model described below the first dose was given on Day 0. The tumors were measured at least once a week and their volume was calculated with the formula: tumor volume (mm^3)=0.5×(tumor width^2)(tumor length). The mean tumor volumes (±S.E.M.) for each treatment group were calculated having a maximum of 10 animals and a minimum of 6 animals to be included.
Similar in vivo experiments were performed with the HCC2429 lung cancer cell line as described above. […] When the tumors reached a volume of 200 to 400 mm^3, the tumors were staged to ensure uniformity of the tumor mass among various treatment groups. The HCC2429 lung model was dosed intraveneously Q4dx4 with PBS vehicle, humanized anti-Notch ADCs and control huNeg-8.8 ADCs at the doses provided in Tables 12 and 13.

[2] = test system: MDA-MB-468 breast xenografts; experiment: MDA-MB-468 breast xenografts with anti-Notch ADCs; format: in vivo, female SCID Hairless Outbred (SHO) mice
Procedure: as §1
Similar in vivo experiments were performed with the MDA-MB-468 breast cancer cell line as described above. […] To generate xenografts, female SCID Hairless Outbred (SHO) mice were orthotopically implanted with 10×10^6 MDA-MB-468 cells containing 50% Matrigel (BD Biosciences) in the mammary fat pad. When the tumors reached a volume of 250 to 450 mm^3, the tumors were staged to ensure uniformity of the tumor mass among various treatment groups. The MDA-MB-468 breast model was dosed intraveneously Q4dx4 with PBS vehicle, humanized anti-Notch ADCs and control huNeg-8.8 ADCs at the doses provided in Tables 14 and 15.

B1: hu28-vc0101: humanized anti-Notch antibody hu28 conjugated to mcValCitPABC-#54 (conjugate)
heavy: EVQLVESGGGLVQPGGSLRLSCAASGFTFRDYGMTWVRQAPGKGLEWVAYISSGSNYIYYAEAVKGRFTISRDNAKNSLYLQMNSLRAEDTAVYYCARRGPFVLDAWGQGTLVTVSS[human IgG1 constant region left out]
light: DIQMTQSPSSLSASVGDRVTITCKASQSINRYLHWYQQKPGKAPKLLIYNANGLQTGVPSRFSGSGSGTDFTLTISSLQPEDFATYYCLQHNTWPDTFGGGTKVEIKRTVAAPSVFIFPPSDEQLKSGTASVVCLLNNFYPREAKVQWKVDNALQSGNSQESVTEQDSKDSTYSLSSTLTLSKADYEKHKVYACEVTHQGLSSPVTKSFNRGEC
tumor volume (mm^3 +/− SEM) ([1]; 0.3 mg/kg Q4dx4, DAY 1): 528 ± 50 mm^3
tumor volume (mm^3 +/− SEM) ([1]; 0.3 mg/kg Q4dx4, DAY 3): 733 ± 78 mm^3
tumor volume (mm^3 +/− SEM) ([1]; 0.3 mg/kg Q4dx4, DAY 6): 1112 ± 132 mm^3
tumor volume (mm^3 +/− SEM) ([1]; 0.3 mg/kg Q4dx4, DAY 8): 1617 ± 172 mm^3
tumor volume (mm^3 +/− SEM) ([1]; 0.3 mg/kg Q4dx4, DAY 10): 2027 ± 233 mm^3
tumor volume (mm^3 +/− SEM) ([1]; 0.3 mg/kg Q4dx4, DAY 13): 2642 ± 297 mm^3
tumor volume (mm^3 +/− SEM) ([1]; 0.3 mg/kg Q4dx4, DAY −1): 246 ± 30 mm^3
tumor volume (mm^3 +/− SEM) ([1]; 1 mg/kg Q4dx4, DAY 1): 532 ± 36 mm^3
tumor volume (mm^3 +/− SEM) ([1]; 1 mg/kg Q4dx4, DAY 3): 757 ± 68 mm^3
tumor volume (mm^3 +/− SEM) ([1]; 1 mg/kg Q4dx4, DAY 6): 1095 ± 119 mm^3
tumor volume (mm^3 +/− SEM) ([1]; 1 mg/kg Q4dx4, DAY 8): 1324 ± 173 mm^3
tumor volume (mm^3 +/− SEM) ([1]; 1 mg/kg Q4dx4, DAY 10): 1606 ± 250 mm^3
tumor volume (mm^3 +/− SEM) ([1]; 1 mg/kg Q4dx4, DAY 13): 1717 ± 223 mm^3
tumor volume (mm^3 +/− SEM) ([1]; 1 mg/kg Q4dx4, DAY 15): 1865 ± 263 mm^3
tumor volume (mm^3 +/− SEM) ([1]; 1 mg/kg Q4dx4, DAY 17): 2228 ± 333 mm^3
tumor volume (mm^3 +/− SEM) ([1]; 1 mg/kg Q4dx4, DAY −1): 246 ± 26 mm^3
tumor volume (mm^3 +/− SEM) ([1]; 3 mg/kg Q4dx4, DAY 1): 548 ± 52 mm^3
tumor volume (mm^3 +/− SEM) ([1]; 3 mg/kg Q4dx4, DAY 3): 606 ± 78 mm^3
tumor volume (mm^3 +/− SEM) ([1]; 3 mg/kg Q4dx4, DAY 6): 723 ± 101 mm^3
tumor volume (mm^3 +/− SEM) ([1]; 3 mg/kg Q4dx4, DAY 8): 696 ± 100 mm^3
tumor volume (mm^3 +/− SEM) ([1]; 3 mg/kg Q4dx4, DAY 10): 620 ± 90 mm^3
tumor volume (mm^3 +/− SEM) ([1]; 3 mg/kg Q4dx4, DAY 13): 543 ± 92 mm^3
tumor volume (mm^3 +/− SEM) ([1]; 3 mg/kg Q4dx4, DAY 15): 512 ± 111 mm^3
tumor volume (mm^3 +/− SEM) ([1]; 3 mg/kg Q4dx4, DAY 17): 442 ± 114 mm^3
tumor volume (mm^3 +/− SEM) ([1]; 3 mg/kg Q4dx4, DAY 20): 428 ± 144 mm^3
tumor volume (mm^3 +/− SEM) ([1]; 3 mg/kg Q4dx4, DAY 23): 405 ± 149 mm^3
tumor volume (mm^3 +/− SEM) ([1]; 3 mg/kg Q4dx4, DAY 27): 422 ± 164 mm^3
tumor volume (mm^3 +/− SEM) ([1]; 3 mg/kg Q4dx4, DAY 30): 394 ± 182 mm^3
tumor volume (mm^3 +/− SEM) ([1]; 3 mg/kg Q4dx4, DAY 34): 505 ± 236 mm^3
tumor volume (mm^3 +/− SEM) ([1]; 3 mg/kg Q4dx4, DAY 37): 606 ± 283 mm^3
tumor volume (mm^3 +/− SEM) ([1]; 3 mg/kg Q4dx4, DAY 41): 750 ± 361 mm^3
tumor volume (mm^3 +/− SEM) ([1]; 3 mg/kg Q4dx4, DAY 45): 872 ± 415 mm^3
tumor volume (mm^3 +/− SEM) ([1]; 3 mg/kg Q4dx4, DAY 49): 558 ± 303 mm^3
tumor volume (mm^3 +/− SEM) ([1]; 3 mg/kg Q4dx4, DAY 52): 571 ± 310 mm^3
tumor volume (mm^3 +/− SEM) ([1]; 3 mg/kg Q4dx4, DAY 56): 704 ± 399 mm^3
tumor volume (mm^3 +/− SEM) ([1]; 3 mg/kg Q4dx4, DAY −1): 245 ± 23 mm^3
effect on growth of HCC2429 lung xenografts (in words) ([1]; humanized ADCs, Q4dx4, doses of Tables 12 and 13): inhibited growth of HCC2429 lung xenografts in a dose-dependent manner; also recorded: a 3 mg/kg dose of hu28-vc0101 was more potent than a 10 mg/kg dose of hu28-vc6780
tumor volume (mm^3 ± SEM) ([2]; Dose 0.3 mg/kg Q4dx4 iv, DAY 0): 336 ± 19 mm^3
tumor volume (mm^3 ± SEM) ([2]; Dose 0.3 mg/kg Q4dx4 iv, DAY 4): 403 ± 28 mm^3
tumor volume (mm^3 ± SEM) ([2]; Dose 0.3 mg/kg Q4dx4 iv, DAY 7): 395 ± 38 mm^3
tumor volume (mm^3 ± SEM) ([2]; Dose 0.3 mg/kg Q4dx4 iv, DAY 11): 412 ± 42 mm^3
tumor volume (mm^3 ± SEM) ([2]; Dose 0.3 mg/kg Q4dx4 iv, DAY 14): 488 ± 45 mm^3
tumor volume (mm^3 ± SEM) ([2]; Dose 0.3 mg/kg Q4dx4 iv, DAY 18): 497 ± 55 mm^3
tumor volume (mm^3 ± SEM) ([2]; Dose 0.3 mg/kg Q4dx4 iv, DAY 21): 509 ± 60 mm^3
tumor volume (mm^3 ± SEM) ([2]; Dose 0.3 mg/kg Q4dx4 iv, DAY 26): 590 ± 66 mm^3
tumor volume (mm^3 ± SEM) ([2]; Dose 1 mg/kg Q4dx4 iv, DAY 0): 348 ± 22 mm^3
tumor volume (mm^3 ± SEM) ([2]; Dose 1 mg/kg Q4dx4 iv, DAY 4): 439 ± 21 mm^3
tumor volume (mm^3 ± SEM) ([2]; Dose 1 mg/kg Q4dx4 iv, DAY 7): 415 ± 25 mm^3
tumor volume (mm^3 ± SEM) ([2]; Dose 1 mg/kg Q4dx4 iv, DAY 11): 372 ± 34 mm^3
tumor volume (mm^3 ± SEM) ([2]; Dose 1 mg/kg Q4dx4 iv, DAY 14): 314 ± 27 mm^3
tumor volume (mm^3 ± SEM) ([2]; Dose 1 mg/kg Q4dx4 iv, DAY 18): 261 ± 33 mm^3
tumor volume (mm^3 ± SEM) ([2]; Dose 1 mg/kg Q4dx4 iv, DAY 21): 219 ± 41 mm^3
tumor volume (mm^3 ± SEM) ([2]; Dose 1 mg/kg Q4dx4 iv, DAY 26): 253 ± 61 mm^3
tumor volume (mm^3 ± SEM) ([2]; Dose 1 mg/kg Q4dx4 iv, DAY 29): 238 ± 64 mm^3
tumor volume (mm^3 ± SEM) ([2]; Dose 1 mg/kg Q4dx4 iv, DAY 32): 266 ± 67 mm^3
tumor volume (mm^3 ± SEM) ([2]; Dose 1 mg/kg Q4dx4 iv, DAY 35): 271 ± 73 mm^3
tumor volume (mm^3 ± SEM) ([2]; Dose 1 mg/kg Q4dx4 iv, DAY 39): 310 ± 88 mm^3
tumor volume (mm^3 ± SEM) ([2]; Dose 1 mg/kg Q4dx4 iv, DAY 42): 349 ± 95 mm^3
tumor volume (mm^3 ± SEM) ([2]; Dose 1 mg/kg Q4dx4 iv, DAY 47): 394 ± 123 mm^3
tumor volume (mm^3 ± SEM) ([2]; Dose 1 mg/kg Q4dx4 iv, DAY 50): 377 ± 118 mm^3
tumor volume (mm^3 ± SEM) ([2]; Dose 1 mg/kg Q4dx4 iv, DAY 53): 414 ± 127 mm^3
tumor volume (mm^3 ± SEM) ([2]; Dose 1 mg/kg Q4dx4 iv, DAY 56): 470 ± 128 mm^3
tumor volume (mm^3 ± SEM) ([2]; Dose 1 mg/kg Q4dx4 iv, DAY 60): 532 ± 140 mm^3
tumor volume (mm^3 ± SEM) ([2]; Dose 1 mg/kg Q4dx4 iv, DAY 63): 509 ± 117 mm^3
tumor volume (mm^3 ± SEM) ([2]; Dose 1 mg/kg Q4dx4 iv, DAY 67): 611 ± 148 mm^3
tumor volume (mm^3 ± SEM) ([2]; Dose 3 mg/kg Q4dx4 iv, DAY 0): 347 ± 15 mm^3
tumor volume (mm^3 ± SEM) ([2]; Dose 3 mg/kg Q4dx4 iv, DAY 4): 359 ± 24 mm^3
tumor volume (mm^3 ± SEM) ([2]; Dose 3 mg/kg Q4dx4 iv, DAY 7): 326 ± 27 mm^3
tumor volume (mm^3 ± SEM) ([2]; Dose 3 mg/kg Q4dx4 iv, DAY 11): 227 ± 27 mm^3
tumor volume (mm^3 ± SEM) ([2]; Dose 3 mg/kg Q4dx4 iv, DAY 14): 147 ± 20 mm^3
tumor volume (mm^3 ± SEM) ([2]; Dose 3 mg/kg Q4dx4 iv, DAY 18): 77 ± 10 mm^3
tumor volume (mm^3 ± SEM) ([2]; Dose 3 mg/kg Q4dx4 iv, DAY 21): 16 ± 8 mm^3
tumor volume (mm^3 ± SEM) ([2]; Dose 3 mg/kg Q4dx4 iv, DAY 26): 0 ± 0 mm^3
tumor volume (mm^3 ± SEM) ([2]; Dose 3 mg/kg Q4dx4 iv, DAY 29): 0 ± 0 mm^3
tumor volume (mm^3 ± SEM) ([2]; Dose 3 mg/kg Q4dx4 iv, DAY 32): 0 ± 0 mm^3
tumor volume (mm^3 ± SEM) ([2]; Dose 3 mg/kg Q4dx4 iv, DAY 35): 0 ± 0 mm^3
tumor volume (mm^3 ± SEM) ([2]; Dose 3 mg/kg Q4dx4 iv, DAY 39): 0 ± 0 mm^3
tumor volume (mm^3 ± SEM) ([2]; Dose 3 mg/kg Q4dx4 iv, DAY 42): 0 ± 0 mm^3
tumor volume (mm^3 ± SEM) ([2]; Dose 3 mg/kg Q4dx4 iv, DAY 47): 0 ± 0 mm^3
tumor volume (mm^3 ± SEM) ([2]; Dose 3 mg/kg Q4dx4 iv, DAY 50): 0 ± 0 mm^3
tumor volume (mm^3 ± SEM) ([2]; Dose 3 mg/kg Q4dx4 iv, DAY 53): 0 ± 0 mm^3
tumor volume (mm^3 ± SEM) ([2]; Dose 3 mg/kg Q4dx4 iv, DAY 56): 0 ± 0 mm^3
tumor volume (mm^3 ± SEM) ([2]; Dose 3 mg/kg Q4dx4 iv, DAY 60): 0 ± 0 mm^3
tumor volume (mm^3 ± SEM) ([2]; Dose 3 mg/kg Q4dx4 iv, DAY 63): 0 ± 0 mm^3
tumor volume (mm^3 ± SEM) ([2]; Dose 3 mg/kg Q4dx4 iv, DAY 67): 0 ± 0 mm^3
tumor volume (mm^3 ± SEM) ([2]; Dose 3 mg/kg Q4dx4 iv, DAY 70): 0 ± 0 mm^3
effect on growth of MDA-MB-468 breast xenografts (in words) ([2]; humanized ADCs, Q4dx4, doses of Tables 14 and 15): inhibited growth of MDA-MB-468 breast xenografts in a dose-dependent manner

Entries after “also recorded” stand apart in the source; their conditions may differ.
